{"source": "patent US11344527B2", "about": "“Methods and compositions for treating cancer” (Sutter West Bay Hospitals, priority 2007, dated 2022)", "type_in_all_cases": "cell-based, human", "key": {"U251 cells [1]": {"tested_on": "U251 cells", "assay": "Apoptosis (annexin staining, FACS), U251", "conditions": "U251, three days", "description": "Cells were grown in 6 well culture dishes and were treated with the appropriate compounds every 24 hours for three days. The cells were trypsinized, washed with PBS, and processed for labeling with fluorescein-tagged UTP nucleotide and PI by use of an Apo-Direct apoptosis kit obtained from Phoenix Flow Systems (San Diego, Calif.) and was used according to the manufacturer's protocol. The labeled cells were analyzed by flow cytometry. Cell Flow Cytometry in combination with PI and annexin staining was used to quantify the percentage of cells undergoing apoptosis in control and treatment groups. % control was calculated as annexin positive staining in treated cells/control cells×100. PI staining was used to distinguish necrotic cells from those undergoing apoptosis."}, "Id-1 mRNA": {"tested_on": "Id-1 mRNA", "assay": "Id-1 mRNA expression by polymerase chain reaction, MDA-MB231", "conditions": "MDA-MB231 cells; FIG. 2A", "description": "Total cellular RNA was isolated from breast cancer cells treated with vehicle control or with CBD. Transcripts for Id-1 and for β-actin were reverse transcribed using SuperscriptII Reverse TranscriptaseII (Gibco-BRL), and polymerase chain reaction performed. The 5′ and 3′ PCR primers were […] (SEQ ID NO:1) and […] (SEQ ID NO:2) for Id-1; and […] (SEQ ID NO:3) and […] (SEQ ID NO:4) for β-actin. PCR was performed in buffer containing 1 μM of each of the 5′ and 3′ PCR primer and 0.5 U of Taq polymerase using 25 cycles for amplification of Id-1 and β-actin cDNAs. The cycle conditions were 45 sec denaturation at 94° C., 45 sec annealing at 55° C., and 1 min extension at 72° C.\nTo determine if this effect was due to the inhibition of transcription, a construct was used that contained the Id-1 promoter fused to a luciferase reporter in a PGL-3 basic vector. This construct was transiently transfected into MDA-MB231 cells. Twenty-four hours after transfection, MDA-MB231-Id-1-luc cells were treated with CBD for 2 or 3 days and luciferase activity was measured (FIG. 2, panel B and panel C). Transfection efficiency and analysis of equal amounts of total protein were controlled by contransfection of the cells with pCMVB containing β-galactosidase. […] These findings correlated to the data obtained when the expression of the Id-1 protein was assessed by Western analysis."}, "Id-1": {"tested_on": "Id-1", "assay": "Id-1 protein expression by quantitative Western analysis, MDA-MB231", "text": "Proteins were separated by SDS/PAGE, blotted on Immobilon membrane, and probed with anti-Id-1 and the appropriate secondary antibody. Band intensity values were obtained directly from the blot using AlphaeaseFC software (San Leandro, Calif.) or from film using Image-J (NIH, MD). As a normalization control for loading, blots were stripped and re-probed with mouse alpha-tubulin (Abeam, Cambridge, Mass.).\nThe ability of CBD to regulate the expression of key genes that control breast cancer cell aggressiveness and invasiveness was determined A potential candidate protein that could mediate the effects of CBD on both phenotypes was the helix-loop-helix protein Id-1. […] The inhibitory effect of CBD on Id-1 expression occurred at concentrations as low as 100 nM. […] The CBD concentrations effective at inhibiting Id-1 expression correlated with those used to inhibit the proliferative and invasive phenotype of MDA-MB231 cells. Furthermore, the time period needed to observe the down-regulation of Id-1 protein in the presence of CBD correlated with the inhibitory effects of CBD on the aggressiveness and invasiveness of MDA-MB231 cells (FIG. 1, panel D).\nIn order to determine the SAR between cannabinoids and the inhibition of Id-1, MDA-MB231 cells were treated for two days with multiple cannabinoid compounds and Id-1 protein levels were assessed."}, "caspase 3, 7, 9 and PARP": {"tested_on": "caspase 3, 7, 9 and PARP", "assay": "Caspase and PARP Western analysis, U251", "conditions": "U251, three days; Δ9-THC 1.7 μM and/or CBD 0.4 μM; FIG. 9"}, "U251 cells [2]": {"tested_on": "U251 cells", "assay": "Boyden chamber invasion assay, U251", "conditions": "FIG. 10"}}, "data": [{"smiles": "C=C(C)[C@@H]1CCC(C)=C[C@H]1c1c(O)cc(CCCCC)cc1O", "note": "[CBD, cannabidiol]", "values": [{"measurement": "apoptosis in the presence of the CB2 antagonist SR144528", "setting": "U251 cells [1]; 0.5 μM SR144528, combination 1.7/0.4 μM, 2.5 μM Δ9-THC or 2.0 μM CBD, FIG. 6", "value": "no reversal"}, {"measurement": "apoptosis in the presence of α-tocopherol", "setting": "U251 cells [1]; 20 μM α-tocopherol, combination 1.7/0.4 μM, 2.5 μM Δ9-THC or 2.0 μM CBD, FIG. 6", "value": "completely blocked"}, {"measurement": "apoptosis (annexin staining)", "setting": "U251 cells [1]; Δ9-THC 1.7 μM and/or CBD 0.4 μM, FIG. 5", "value": "did not produce significant changes"}, {"measurement": "Id-1 mRNA expression", "setting": "Id-1 mRNA", "value": "significantly reduced"}, {"measurement": "Id-1 protein expression in MDA-MB231 cells", "setting": "Id-1; 0.1, 1.0 or 1.5 μM, three days, FIG. 1B, C", "value": "concentration-dependent inhibition"}, {"measurement": "concentration as low as which the inhibitory effect on Id-1 expression occurred", "setting": "Id-1; MDA-MB231 cells", "value": 100, "unit": "nM"}, {"measurement": "inhibition of Id-1 protein (structure activity relationship)", "setting": "Id-1; MDA-MB231 cells, 1.5 μM, two days, FIG. 1E", "value": "greatest inhibition"}, {"measurement": "caspase 3, 7, 9 and PARP activation", "setting": "caspase 3, 7, 9 and PARP", "value": "no changes in caspase activity"}, {"measurement": "invasiveness of U251 cells", "setting": "U251 cells [2]", "value": "significantly reduce"}]}]}
